This experiment relates to CC9605_PhnD1. In words: Second DSF screen of 60 individual P-sources.

With `NC(=O)OP(=O)(O)O` [carbamyl phosphate], the “Increase in thermal stability (ΔTM)” value is reported as “marked increase in the thermal stability”.

In the case of `O=C(O)COP(=O)(O)O` [phospho glycolic acid], the “Increase in thermal stability (ΔTM)” value is listed as “marked increase in the thermal stability”.
